In the supplement of paper PMC7125110:
± gives the standard error. This sample is rich in variants without activity.

B1: glmS ribozyme (parent)
chain: AUAAAAGCGCCAGAACUACAGAAAUGUAGUUGACGAGGAGGAGGUUUAUCGAAUUUUCGGCGGAUGCCUCCAAA

Variants of: B1
Test: self-cleavage kobs at 2500 uM GlcN6P; higher = faster cleavage; RNA array
Details: with glucosamine-6-phosphate
How it was run: (§1)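 Barcoded ribozyme variants, transcribed in situ by E. coli RNA polymerase on sequenced MiSeq chips, were followed via a hybridised Cy3 probe at 37 °C. Glucosamine-6-phosphate ranged from 40 μM to 10 mM in HEPES/KCl/Mg(OAc)2 buffer. kobs came from decay fits to per-tile medians, and kcat and KM from weighted Michaelis–Menten fits.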

Variant | self-cleavage kobs at 2500 uM GlcN6P
C10U G26A | 7.4e-05 ± 2.8e-05 s⁻¹
C10U U30A G38C | < 1e-05 s⁻¹
C11A A12U U45G U55A C70U | 7.5e-05 ± 3.1e-05 s⁻¹
C11A A14C U45C | < 1e-05 s⁻¹
C11A A33C A53C A64C | < 1e-05 s⁻¹
C11A A36U A52G A53G G63A | < 1e-05 s⁻¹
C11A C16A G29U G43U C70U | < 1e-05 s⁻¹
C11A G32U G44C A48U G51A | < 1e-05 s⁻¹
C11A G37A G38C | < 1e-05 s⁻¹
C11A G38C C61U U69C | < 1e-05 s⁻¹
C11A G38C G62A | < 1e-05 s⁻¹
C11A G41A A64G | < 1e-05 s⁻¹
C11A U31G A33U G37U U56A | < 1e-05 s⁻¹
C11A U54A U55G | 0.000135 ± 4.1e-05 s⁻¹
C11G A14C G38A A42U | < 1e-05 s⁻¹
C11G A15C G32U C71U | < 1e-05 s⁻¹
C11G A15G A39C G40A | < 1e-05 s⁻¹
C11G A15U U55G | < 1e-05 s⁻¹
C11G A15U U55G C71U | < 1e-05 s⁻¹
C11G A48C C58G | < 1e-05 s⁻¹
C11G A48U G59U | < 1e-05 s⁻¹

Variant | self-cleavage kobs at 2500 uM GlcN6P
C11G G26U G43C | < 1e-05 s⁻¹
C11G G29A C67U | < 1e-05 s⁻¹
C11G G29A G35A U69A | < 1e-05 s⁻¹
C11G G32C G59C G66A | < 1e-05 s⁻¹
C11G G38U C71A | < 1e-05 s⁻¹
C11G G41U A48C C70G | < 1e-05 s⁻¹
C11G G63A C67U | < 1e-05 s⁻¹
C11G U56A G62A | < 1e-05 s⁻¹
C11U A14G C61A U69G | < 1e-05 s⁻¹
C11U A15U G41C | < 1e-05 s⁻¹
C11U A20C G43A | < 1e-05 s⁻¹
C11U A36G G37A | < 1e-05 s⁻¹
C11U A39G G40A A42G A48U C67A | < 1e-05 s⁻¹
C11U A48G A52U | < 1e-05 s⁻¹
C11U C34A U47A C50A G51U | < 1e-05 s⁻¹
C11U C34G A52U | < 1e-05 s⁻¹
C11U C34G U54C | < 1e-05 s⁻¹
C11U C34U A42U A48G U56G | < 1e-05 s⁻¹
C11U G29U A42C | < 1e-05 s⁻¹
C11U G38A C67U C71A | < 1e-05 s⁻¹
C11U G44C U54A U69C | < 1e-05 s⁻¹

Variant | self-cleavage kobs at 2500 uM GlcN6P
C11U G51A C68A C71A | < 1e-05 s⁻¹
C11U U31G G60U | < 1e-05 s⁻¹
A12C A14C G43A A64U | < 1e-05 s⁻¹
A12C A36G G44C U54A | < 1e-05 s⁻¹
A12C A42U U65A C70A | < 1e-05 s⁻¹
A12C A52C | < 1e-05 s⁻¹
A12C C16G C61U | < 1e-05 s⁻¹
A12C G29U G32C U46A | < 1e-05 s⁻¹
A12C G32C G43C | < 1e-05 s⁻¹
A12C G41C C50G | < 1e-05 s⁻¹
A12C G44C U65C | < 1e-05 s⁻¹
A12C U31C G43U | < 1e-05 s⁻¹
A12G A14C G44A U49C A53G G59A | < 1e-05 s⁻¹
A12G A15U C61G | < 1e-05 s⁻¹
A12G A15U G63A | < 1e-05 s⁻¹
A12G C16U U69G | 6.28e-05 ± 2.8e-05 s⁻¹
A12G G35U A39C | < 1e-05 s⁻¹
A12G G37A G41U G43A | < 1e-05 s⁻¹
A12G G40A G60A U69G | < 1e-05 s⁻¹
A12G U56G C70G | 0.000113 ± 3e-05 s⁻¹
A12U A15U C50A G51A G59C | < 1e-05 s⁻¹

Variant | self-cleavage kobs at 2500 uM GlcN6P
A12U C34U C71U | < 1e-05 s⁻¹
A12U G29C G32A A42U G62C | < 1e-05 s⁻¹
A12U G32C C70U | < 1e-05 s⁻¹
A12U G44U C70U | 5.27e-05 ± 1.8e-05 s⁻¹
A12U G51C U69G | < 1e-05 s⁻¹
A12U U31A G60A C70A | < 1e-05 s⁻¹
A12U U47G U65G | 0.00179 ± 0.0004 s⁻¹
G13A G32C A33U G44A A48C | < 1e-05 s⁻¹
G13A G37C U54A | < 1e-05 s⁻¹
G13A G44U C71A | < 1e-05 s⁻¹
G13C C50U A52G | < 1e-05 s⁻¹
G13C C61A C68G | < 1e-05 s⁻¹
G13C G29C U55A | 8.97e-05 ± 2.5e-05 s⁻¹
G13C G41A U65A | < 1e-05 s⁻¹
G13C U55A | 6.85e-05 ± 1.6e-05 s⁻¹
G13U A15U U30G G59C | < 1e-05 s⁻¹
G13U A36U G41C | < 1e-05 s⁻¹
G13U A42C U69A | < 1e-05 s⁻¹
G13U A48G U54A | < 1e-05 s⁻¹
G13U A52C C70U | < 1e-05 s⁻¹
G13U C16G A33U C34G U54A C58G | < 1e-05 s⁻¹

Variants of: B1
Test: self-cleavage kobs at 10000 uM GlcN6P; higher = faster cleavage; RNA array
Details: with glucosamine-6-phosphate
How it was run: as §1

Variant | self-cleavage kobs at 10000 uM GlcN6P
C11A A12U U45G U55A C70U | 0.000245 ± 5.6e-05 s⁻¹
C11A A33C A53C A64C | < 1e-05 s⁻¹
C11A U54A U55G | 0.000124 ± 1.8e-05 s⁻¹
C11U C34G A52U | < 1e-05 s⁻¹
A12G U56G C70G | 7.52e-05 ± 2e-05 s⁻¹
G13A G32C A33U G44A A48C | < 1e-05 s⁻¹
G13U A36U G41C | < 1e-05 s⁻¹
